From patent US20110039795A1, “2'-O,3'-N-BRIDGED MACROLIDES” (priority 2008, published 2011)
Some of these results come from one statement about several compounds together. For part of these data: The name of at least one read-out is uncertain.

How the values were obtained:
[1] = system: IL-6 production in LPS-stimulated murine splenocytes; assay: Inhibition of IL-6 production in LPS-stimulated murine splenocytes in vitro; assay type: cell-based, mouse; conditions: 50 μM or/and 25 μM concentration of the compound
male BALB/cJ mice = assay: Lung neutrophilia induced by bacterial lipopolysaccharide (LPS) in male BALB/cJ mice; assay type: in vivo, mouse; conditions: single dose of 200 mg/kg i.p.; LPS intranasally; compared to positive control
CD1 mice = assay: Phorbol 12-myristate 13-acetate induced ear edema in CD1 mice; assay type: in vivo, mouse; conditions: applied topically once in a dose 500 μg/ear; PMA induced ear edema
Description: Phorbol 12-Myristate 13-Acetate Induced Ear Edema in CD1 Mice
Male CD1 mice (Charles River, France) weighing 30-40 g are randomly grouped (n=8 in test group of which the untreated ear serves as negative control; 8 in positive control group which also serves as their own negative control group). Test compounds, as well as vehicle (Trans-phase Delivery system, containing benzyl alcohol 10%, acetone 40% and isopropanol 50%) (all from Kemika, Croatia), are administered topically to the internal surface of the left ear 30 minutes prior to administration of phorbol 12-myristate 13-acetate (PMA) (Sigma, USA). Test compounds are administered at a dose 500 μg in 15 μL per ear. 30 minutes later, 0.01% PMA solution in acetone is applied topically to the inner surface of the left ear of each animal in a volume of 12 μL per ear. During the treatment and challenge, animals are anesthetized with anesthesia by inhalation. 6 h following challenge, animals are euthanized by intraperitoneal thiopental injection (PLIVA, Croatia). For assessing the auricular edema, 8 mm discs are cut out of left and right auricular pinna and weighed. The degree of edema is calculated by subtracting the weight of 8 mm disc of the untreated ear from that of the treated contralateral ear. The inhibition of edema in the treated animals is expressed as percentage compared to control mice.

Row | Molecule | inhibition of interleukin-6 (IL-6) production in LPS-stimulated splenocytes [1] | inhibition of number of neutrophils in BALF (male BALB/cJ mice) | inhibition of total cell number in BALF (male BALB/cJ mice) | inhibition of edema (CD1 mice)
1 | CC[C@H]1OC(=O)[C@H](C)[C@@H](O[C@H]2C[C@@](C)(OC)[C@@H](O)[C@H](C)O2)[C@H](C)[C@@H](O[C@@H]2O[C@H](C)C[C@H]3[C@H]2OC(=NC(C)C)N3C)[C@](C)(OC)C[C@@H](C)C(=O)N[C@H](C)[C@@H](O)[C@]1(C)O (single isomer, unassigned) [Example 7, 2′-O,3′-N-(Carbonimidoyl)-3′-N-demethyl-N′-isopropyl-6-O-methyl-9a-aza-9a-homoerythromycin A] | more than 60% | more than 70% | more than 70% | –
2 | CC[C@H]1OC(=O)[C@H](C)[C@@H](O[C@H]2C[C@@](C)(OC)[C@@H](O)[C@H](C)O2)[C@H](C)[C@@H](O[C@@H]2O[C@H](C)C[C@H]3[C@H]2OC(=NCC2CCCO2)N3C)[C@](C)(OC)C[C@@H](C)C(=O)N[C@H](C)[C@@H](O)[C@]1(C)O (stereo partly drawn) [Example 24, 2′-O,3′-N-(Carbonimidoyl)-3′-N-demethyl-6-O-methyl-N′-(tetrahydro-2-furanylmethyl)-9a-aza-9a-homoerythromycin A] | more than 40% | more than 70% | more than 70% | –
3 | N′-Benzyl-2′-O,3′-N-(carbonimidoyl)-3′-N-demethyl-6-O-methyl-9a-aza-9a-homoerythromycin A [Example 5] | more than 80% | more than 50% | more than 50% | more than 50%
4 | CC[C@H]1OC(=O)[C@H](C)[C@@H](O[C@H]2C[C@@](C)(OC)[C@@H](O)[C@H](C)O2)[C@H](C)[C@@H](O[C@@H]2O[C@H](C)C[C@H]3[C@H]2OC(=NC(C)C)N3C)[C@](C)(OC)C[C@@H](C)C(=O)[C@H](C)[C@@H](O)[C@]1(C)O (single isomer, unassigned) [Example 11, 2′-O,3′-N-(Carbonimidoyl)-3′-N-demethyl-N′-isopropyl-6-O-methyl-erythromycin A] | more than 80% | more than 70% | more than 70% | –
5 | CCN=C1O[C@H]2[C@H](O[C@@H]3[C@@H](C)[C@H](O[C@H]4C[C@@](C)(OC)[C@@H](O)[C@H](C)O4)[C@@H](C)C(=O)O[C@H](CC)[C@@](C)(O)[C@H](O)[C@@H](C)C(=O)[C@H](C)C[C@@]3(C)OC)O[C@H](C)C[C@@H]2N1C (single isomer, unassigned) [Example 14, 2′-O,3′-N-(Carbonimidoyl)-3′-N-demethyl-N′-ethyl-6-O-methyl-erythromycin A] | more than 60% | more than 70% | more than 70% | –
6 | CC[C@H]1OC(=O)[C@H](C)[C@@H](O[C@H]2C[C@@](C)(OC)[C@@H](O)[C@H](C)O2)[C@H](C)[C@@H](O[C@@H]2O[C@H](C)C[C@H]3[C@H]2OC(=NC(C)C)N3C)[C@](C)(O)C[C@@H](C)CN(C)[C@H](C)[C@@H](O)[C@]1(C)O (single isomer, unassigned) [Example 3, 2′-O,3′-N-(Carbonimidoyl)-3′-N-demethyl-9-deoxo-N′-isopropyl-9a-methyl-9a-aza-9a-homoerythromycin A] | more than 80% | more than 70% | more than 70% | –
7 | CC[C@H]1OC(=O)[C@H](C)[C@@H](O[C@H]2C[C@@](C)(OC)[C@@H](O)[C@H](C)O2)[C@H](C)[C@@H](O[C@@H]2O[C@H](C)C[C@H]3[C@H]2OC(=NCc2ccccc2)N3C)[C@](C)(OC)C[C@@H](C)[C@H](O)[C@H](C)[C@@H](O)[C@]1(C)O (single isomer, unassigned) [Example 30] | more than 80% | – | – | –
8 | CC[C@H]1OC(=O)[C@H](C)[C@@H](O[C@H]2C[C@@](C)(OC)[C@@H](O)[C@H](C)O2)[C@H](C)[C@@H](O[C@@H]2O[C@H](C)C[C@H]3[C@H]2O/C(=N/CCCN(CC)CC)N3C)[C@](C)(OC)C[C@@H](C)C(=O)[C@H](C)[C@@H](O)[C@]1(C)O (single isomer, unassigned) [Example 12, 2′-O,3′-N-(Carbonimidoyl)-3′-N-demethyl-N′-[3-(diethylamino)propyl]-6-O-methyl-erythromycin A] | more than 80% | – | – | –
9 | CC[C@H]1OC(=O)[C@H](C)[C@@H](O[C@H]2C[C@@](C)(OC)[C@@H](O)[C@H](C)O2)[C@H](C)[C@@H](O[C@@H]2O[C@H](C)C[C@H]3[C@H]2OC(=NCc2ccccc2)N3C)[C@](C)(OC)C[C@@H](C)C(=O)[C@H](C)[C@@H](O)[C@]1(C)O (single isomer, unassigned) [Example 9, N′-Benzyl-2′-O,3′-N-(carbonimidoyl)-3′-N-demethyl-6-O-methyl-erythromycin A] | more than 80% | more than 50% | more than 50% | –
10 | CC[C@H]1OC(=O)[C@H](C)[C@@H](O[C@H]2C[C@@](C)(OC)[C@@H](O)[C@H](C)O2)[C@H](C)[C@@H](O[C@@H]2O[C@H](C)C[C@H]3[C@H]2OC(=NC(C)C)N3C)[C@](C)(OC)C[C@@H](C)N(C)C[C@H](C)[C@@H](O)[C@]1(C)O (single isomer, unassigned) [Example 39, 2′-O,3′-N-(Carbonimidoyl)-3′-N-demethyl-N′-isopropyl-6-O-methyl-9-deoxo-8a-methyl-8a-aza-8a-homoerythromycin A] | more than 80% | – | – | –
11 | CC[C@H]1OC(=O)[C@H](C)[C@@H](O[C@H]2C[C@@](C)(OC)[C@@H](O)[C@H](C)O2)[C@H](C)[C@@H](O[C@@H]2O[C@H](C)C[C@H]3[C@H]2OC(=Nc2ccnc4ccccc24)N3C)[C@](C)(O)C[C@@H](C)CN(C)[C@H](C)[C@@H](O)[C@]1(C)O (single isomer, unassigned) [Example 46, 2′-O,3′-N-(Carbonimidoyl)-3′-N-demethyl-9a-methyl-N′-(4-quinolinyl)-9a-aza-9a-homoerythromycin A] | more than 80% | – | – | –
12 | CC[C@H]1OC(=O)[C@H](C)[C@@H](O[C@H]2C[C@@](C)(OC)[C@@H](O)[C@H](C)O2)[C@H](C)[C@@H](O[C@@H]2O[C@H](C)C[C@H]3[C@H]2OC(=NC)N3C)[C@](C)(OC)C[C@@H](C)C(=O)[C@H](C)[C@@H](O)[C@]1(C)O (single isomer, unassigned) [Example 13, 2′-O,3′-N-(Carbonimidoyl)-3′-N-demethyl-N′-methyl-6-O-methyl-erythromycin A] | more than 80% | – | – | –
